# The campaign covered roughly 94,000 compounds. About 6,200 (6.6%) were called active. The shares of active, inactive and inconclusive entries below differ from those in the screen. Calls come from the whole dose curve; as a rule, active = well fitted inhibition curve with a large enough effect; inconclusive = small, poorly fitted or top-dose-only effect; inactive = flat fitted curve, though single readings scatter. Where the call is inconclusive, the potency comes from a doubtful curve fit.
# Assay: Cytotoxic Profiling in HEK 293 Cell Line of Diverse Libraries Using Quantitative High-Throughput Screening; note: nearly all actives have a fitted effect of over 60% in size
# Details: HEK 293 viability, ATP luminescence (CellTiter-Glo), 48-72 h; series mostly up to 115 µM
# Outline: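 Luminescence from cellular ATP, measured with CellTiter-Glo, indicates HEK 293 viability. Cells plated at 250 cells/well are treated with compound for 48 or 72 hr at 37 degree Celsius before reagent addition.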
# Potency is the fitted concentration of half-maximal effect; tags give direction and shape of the fitted curve.
row,SMILES,Potency
1,O=C(c1cccs1)N1CCC(Oc2cccc(F)c2)C1 (stereo unspecified),"inconclusive: 50.1 µM [inhibitor, partial curve, poor fit]"
2,O=C(NC1CCCCC1)[C@@H]1Cc2nc[nH]c2CN1Cc1cc2ccccc2o1,"inconclusive: 126 µM [inhibitor, single point]"
3,Cc1cccc(C)c1N1C(C(=O)OC(C)(C)C)=C(O)c2ccccc2S1(=O)=O,"inconclusive: 35.5 µM [inhibitor, partial curve, poor fit]"
4,CCCCN(C)C(=O)c1cc(-c2ccc(C)cc2)cn1CC,"inconclusive: 50.1 µM [inhibitor, partial curve, poor fit]"
5,Cc1nc(-c2cnccn2)n(CC(=O)Nc2ccc3c(c2)OCO3)c(=O)c1C,inactive
6,COc1cc(C(=O)NC2CCCc3c2[nH]c2c(Cl)cccc32)cc(OC)c1OC (stereo unspecified),"inconclusive: 7.94 µM [inhibitor, full curve, poor fit]"
7,CCCN1CCC[C@H]1c1nc(-c2ccc(NCCOC)nc2)no1,inactive
8,O=C(c1ccc(C(F)(F)F)cc1)N1CCC2(Cc3ccccc3NC2=O)C1 (stereo unspecified),"inconclusive: 20 µM [inhibitor, partial curve, poor fit]"
9,O=C(NC1CCCN(c2nc3ncccc3o2)C1)c1ccccc1 (stereo unspecified),"inconclusive: 126 µM [inhibitor, single point]"
10,Cc1cccc(CNC(=O)c2csc(N3CCN(c4ccccc4)CC3)n2)c1,active: 39.8 µM
11,FC(F)(F)c1cccc(C2=NOC3(CCN(Cc4ccccc4)CC3)C2)c1,"inconclusive: 50.1 µM [inhibitor, partial curve, poor fit]"
12,COc1cccc(OCc2nnc(C(=O)N3CCC[C@@H]3c3cccc(F)c3)n2-c2ccccc2)c1,"inconclusive: 79.4 µM [inhibitor, partial curve]"
13,O=C(COc1ccccc1)N1CCC2(CC1)CC(N(C(=O)c1ccccc1)C1CC1)CCO2 (stereo unspecified),"inconclusive: 89.1 µM [inhibitor, partial curve, poor fit]"
14,Cc1ccc(NC(=O)N2CCC(n3cnnc3C3CC3)C2)c(Cl)c1 (stereo unspecified),inactive
15,CCCC1c2nccn2CCCN1C(=O)c1ccc(OC)nc1OC (stereo unspecified),"inconclusive: 89.1 µM [inhibitor, single point]"
16,O=C(C1CCN(c2nc3ncccc3o2)CC1)N1CCN(Cc2ccccc2)CC1,"inconclusive: 39.8 µM [inhibitor, partial curve, poor fit]"
17,CCN(CC)Cc1cnc2c(C(=O)NC3(C(N)=O)CCCC3)cnn2c1,inactive
18,Cn1cc(CN2CCCCCCNC(=O)[C@@H]3CCC[C@@H]32)c2ccccc21,"inconclusive: 56.2 µM [inhibitor, partial curve, poor fit]"
19,COc1cccc(CN2CCCC(N3CCN(c4cccc(C(F)(F)F)c4)CC3)C2)c1O (stereo unspecified),active: 31.6 µM
20,O=C(NCCc1ccccc1)c1nc2sccn2c1-c1cccc(C(F)(F)F)c1,"inconclusive: 35.5 µM [inhibitor, full curve, poor fit]"
21,CC1(CCC(=O)N2CCC(Oc3ccccc3F)(C(=O)O)CC2)CC1,inactive

row,SMILES,Potency
1,Cc1ccc(C)c(-c2cc3c(=O)n(CCNC(=O)c4ccc(N(C)C)cc4)ccn3n2)c1,"inconclusive: 20 µM [inhibitor, full curve, poor fit]"
2,O=C(Cc1ccccc1Br)N1CCN(c2cc(-c3cccs3)[nH]n2)CC1,"inconclusive: 50.1 µM [inhibitor, partial curve, poor fit]"
3,O=C(NCc1nnc2ccc(-c3ccc(F)cc3)nn12)c1ccoc1,inactive
4,CC(=O)N1CCCC(C(=O)N2CCC(c3nc4ncccc4[nH]3)CC2)C1 (stereo unspecified),inactive
5,O=C(C[C@H]1NC(=O)c2ccccc2NC1=O)Nc1ccncc1,inactive
6,COc1cc(CN2CCC(C)(NC(C)=O)CC2)cc(-c2c(C)noc2C)c1,"inconclusive: 35.5 µM [inhibitor, partial curve, poor fit]"
7,O=C1NCCCCCN(C(=O)c2ccco2)[C@@H]2C[C@@H](C(=O)N3CCc4ccccc4C3)C[C@H]12,"inconclusive: 79.4 µM [inhibitor, partial curve, poor fit]"
8,CNC(=O)c1cc(C)nc2onc(C3CCCN(C(=O)c4ccccc4)C3)c12 (stereo unspecified),inactive
9,O=C1Nc2ccccc2CC12CCN2[S+](=O)([O-])c1cccc(C(F)(F)F)c1 (stereo unspecified),"inconclusive: 89.1 µM [inhibitor, single point]"
10,O=C(NCc1cccc(Cl)c1)c1cnc2c(c1)N(C(=O)CCc1ccccc1)CCC2,"inconclusive: 112 µM [inhibitor, partial curve, poor fit]"
11,COc1ccc(C(=O)N2CCC(n3nccc3NC(=O)c3cccc(F)c3)CC2)cc1C,inactive
12,CCCOC1CCCN(C(=O)c2ccc3nc(-c4ccc(F)cc4)cn3c2)C1 (stereo unspecified),active: 25.1 µM
13,CC(=O)NC1(C)CCN(Cc2ccccc2-c2ccc3ccccc3c2)C1 (stereo unspecified),"inconclusive: 63.1 µM [inhibitor, partial curve, poor fit]"
14,COc1cccc(N2CCN(C(=O)c3ccc4c(c3)C(O)CCCCCN4C)CC2)c1 (stereo unspecified),"inconclusive: 50.1 µM [inhibitor, partial curve, poor fit]"
15,COCC1CN(Cc2ccc(F)c(F)c2)CC12CCNCC2 (stereo unspecified),"inconclusive: 89.1 µM [inhibitor, partial curve]"
16,COC1CN(c2cccc(F)c2)C12CCN(C(=O)CC1CCCCC1)CC2 (stereo unspecified),active: 44.7 µM
17,Cc1cc(C)cc(-c2ccc(CN3CCCC3C(=O)Nc3cccc(F)c3)cc2)c1 (stereo unspecified),"inconclusive: 50.1 µM [inhibitor, partial curve, poor fit]"
18,COC(=O)[C@@H]1Cc2ncn(C(C)C)c2CN1S(=O)(=O)c1cccc(C(F)(F)F)c1,inactive
19,CCOC(=O)C(Cc1cccc(N2CCN(C(=O)c3ccccc3Cl)CC2)c1)OC (stereo unspecified),"inconclusive: 56.2 µM [inhibitor, partial curve, poor fit]"
20,CC(=O)N1CCC(N[C@H]2CC(C)(C)[C@@H]3C[C@@](C)(O)CC[C@]23CCC(=O)NCCc2c[nH]c3ccccc23)CC1,"inconclusive: 89.1 µM [inhibitor, partial curve, poor fit]"
